For 20 variants, self-cleavage results are on record in the RNAGym collection of RNA variant scans (doi:10.7554/elife.90254).

The source gives no read counts; variants with many changes may rest on few reads.

The labels stand for the following.
B1: LINE1-full (parent)
chain: UACGUAGGUGGUUUUCCCCUGAUAGUGCUAAGGGGGCCUGGAAGUUUGGACUGGGCAGAGCUCAACACAGCGUGGCAAAGUGGCUGUGGCUAGACUGCCUCUCUGGAUUCCUCGUCACUCAGCAGGGCAUCUCUGAGAGAAAUGCC

Variants of B1 are the subject of the series. Description: self-cleavage, relative activity (ratio to wild type); higher = more cleavage; in vitro, sequencing; the parent is a self-cleaving ribozyme.
Consider UACGUAGGUGGUUUUCCCCUGAUAGUGCAAAGGGGGCCUGGAAGUUUGGACUGGGCAGAGCUCAACACUGCGUGGCAAAGUGGCUGUGGCUAGACUGCCUCUCUGGAUUCCUCGUCACUCAGCAGGGCAUCCCUGAGAGAAAUGCC, for which the self-cleavage amounted to 0.04.

For UACGCAGGUGGUUCUCCCCUGAUAGUGCUAAGGGGGCCUGGAAGUCAGGACUGGGCAGAGCUCAACACAGCGUGGCAAAGUGGCUGUGGCUAGACUGCCUCUCUGGAUUCCUCGUCACUCAGCAGGGCAUCUCUGAGAGAAAUGCC, the self-cleavage stood at 1.51.

On to UACGUAGGUGGUUUUCCCCUGAUAGUGCUAAGGGGGCCUGGGAGUUUGGACUGGGCAGAGCUCAACACAGCGCGGCAAAGUGGCUGUGGCUAGACUGCCUCUCUGGAUUCCUCGUCACUCAGCAGGGCAUCUCUGAGAGAAAAGCC, for which the self-cleavage turned out to be 2.87.

As to AGCGUAGGUGGUUUUCCCCUGAUAGUGCUAAGGGGGCCUGGAAGUUUGGACUGGGCAGAGCUCAACACAGCGUGGCAGAGUGGCUGUGGCUAGACUGCCUCUCUGGAUUCCUCGUCACUCAGCAGGGCAUCUCUGAGUGAAAUGCC, the self-cleavage was found to be 0.96.

As for UACGUAGGUGGUUUUCCCCUGAUAGUGCUAAGGGGACCAGGAAGUUUGGACUGGGCAGAGCUCAACACAGCGUGGCAAAGUGGCUGUGGCUAGACUGCCUCUCUGGAUUCCUCGUCACUCUGCAGGGCAUCUCCGAGAGAAAUGCC, the self-cleavage was 1.19.

As to UACGUAGGUGGUUUUCCCCUGAUUGUGCUAAGGGGGCCUGGAAGUUUGGACUGGGCAGAGCUCUACACAGCGUGGCAAAGUGGCUGUGGCUAGGCUGCCUCUCUGGAUUCCUCGUCACUCAGCAGGGCAUCUCAGAGAGAAAUGCC, the self-cleavage stood at 0.08.

Turning to UACGUAGGUGGUUUUCCCCUGAUAGUGCUAAGGGGGCCUGGAGGUUUGGAAUGGGCAGAGCUCUACACAGCGUGGCAAAGUGGCUGUGGCUAGACCGCCUCUCUGGAUUCCUCGUCACUCAGCAGGGCAUCUCUGAGGGAAAUGCC, the self-cleavage came to 0.12.

With UACGUAGGUGGUUAUCCCCUGAUAGUGCUAAGGGGGCCUGGAAGUUUGGACUGGGCAGAGCACAACACGGCGUGGCAAAGUGGCUGUGGCUAGACUGCCUCUCUGGAUUCCUCGUCACUCAGCAGGGCAUCUCUGAGAGAAAUGCC, the self-cleavage was found to be 0.11.

Turning to UACGUAGGUGGCUCUCCCCUGAUAGUGCUAAGGGGGCCUGGAAGCUUGGACUGGGCAGAGCUCAACACAGCGUGGCAAAGUGGCUGUGGUUAGACUGCCUCUCUGGAUUCCUCGUCACUCAGCAGGGCGUCUCUGAGAGAAAUGCC, the self-cleavage was determined as 0.17.

On to CACGUAGGUGGUUGUCCCCUGAUAGUGCUAAGGGGGCCUGGAAGUUUGGACUGGGCAGAGCUCAACACAGCGUGGCAAAGUGGCUGUGGCUAGACUGCCUCUCUGGAUUCCUCGUCACUCAGCAGGGCAUCUCUGGGGGAAAUGCC, for which the self-cleavage worked out at 1.74.

As to UACGUAGGUGGUUUUCCCCUGGUAGUGCUAAGGGGGCCUGGAAGGUUGGACUGGGCAGAGCUCAACACAGCGUGGCAAAGUAGCUGUGGCUAGACUGCCUCUCUGGAUUCCUCGUCACUCAGCAGGGCAUCUCUGAGAGAAAUGCC, the self-cleavage amounted to 0.89.

In the case of UACGUAGGUGGUUUUCCCCAGAUAGUGCUAAGGGGGCCUGGAAGUUUGGACUGAGCAGAGCUCAACACAGCGUGGCAAAGUGGCUGUGGCCAGACUGCCUCUCUGGAUUCCUCGUCACUCAGCAGGGCAUCUCUGAGAGAUAUGCC, the self-cleavage stood at 0.

As for UACGUAGGUGGUUUUCCCCUGAUAGUGCUAAGGGGGCCUGGAAGUUUGGACUGGGCAGAGCUCAACACAGCGUGGCAAAGUGGCUGUGGCUAGACUGCCUCUCAGGAUUCCUCGUCACUCAGCAGGGCAGCUCUGGGAGAAAUGCC, the self-cleavage was found to be 1.64.

As for UACGUAGGUGGUAUUCCCCUGAUAGUGCUUAGGGGGCCUGGGAGUUUGGACUGGGCAGAGCUCAACACAGCGUGGCAAAGUGGCUGUGGCUAGACUGCCUCUCUGGAUUCCUCGACACUCAGCAGGGCAUCUCUGAGAGAAAUGCC, the self-cleavage is 1.07.

Regarding CACGUAGGUGGUUUUCCCCUGAUAGUGCUAAGGGGGCCUGGAAGUUUGGACUGGGCAGAGCUCUACACAGCGUGGCAGAGUGGCUGUGGCUAGAUUGCCUCUCUGGAUUCCUCGUCACUCAGCAGGGCUUCUCUGAGAGAAAUGCC, the self-cleavage was found to be 0.04.

Take UACGUAGGUGGUUUUCCCCUGAUAGUGCUAAGGGGGUCUGGAAGUUUGGACUGGGCAGAGCUCAUCACAGCGUGGCAAAGUGGCUGUGGCUAGACCGCCUCUCUGGAUUCCUCGUCACUCUGCAGGGCAUCUCUGAGUGAAAUGCC: the self-cleavage stood at 0.06.

For the variant UACGUAGGUGGUUUUCCCCUGAUAGUGCUAAGGGGGCCGGGAAGUUUGGACUGGGCAGAGCUCAACACAGCGUGGCAAAGUGGCUGUGGCUUGACCGCCUCUCUGGAUUCCUCGUCACUCAGCAGGGCACCUCUGAGGGUAAUGCC, the self-cleavage is 0.

Consider UACGUAGGUGGUUUUCCCCUGAUAGUGCCAAGGUGGCCUGGAAGUUUGGACUGGGCAGAGCUCAACACAGCGUGGCGAAGUGGCUGUGGCUAGACUGCCUCUCUGGAUUCCUCGUCACUCAGCAGGGCAUCUCUGAGAGAAAUGCC, for which the self-cleavage amounted to 1.86.

On to UACGUAGGUGGUUUUUCCCUGCUAGUGCUAAGGGGGCCUGGAAGUUUGGACAGGGCAGAGCUCAACACAGCGUGGCAAAGUGGCUGUGGCUAGACUGCCUCUCUGGAUUCCUCGUCACUCAGCAGGGCAUCUCUGAGAGAAAUGCC, for which the self-cleavage came to 1.87.

As to UACGUGGGUGGUUUACCCCUGAUAGUGCUAAGGGGGCCUGGAAGUUUGGACUGGGCAGGGCUCAACACAGCGUGGCAAAGUGGCUGUGGCUAGACUGCCUCUCUGGAUUCCUCGUCACUCAGCAGGGCAUCUCUGAGAGAAAUGCC, the self-cleavage is 0.
